Laboratory results taken from PMC9911399, “Two distinct binding modes provide the RNA-binding protein RbFox with extraordinary sequence specificity”.
Substitutions are numbered along the chain they refer to; changes in the protein carry UniProt numbers. Some of the results follow.

B1: GCCAGCG (DNA:RNA)
RNA: GGGAGACCGGAAUUCAGAUUGUCCGCCAGCGUUAAAUCCCGUCGUAGCCACCA
DNA 1: CAATCTGAATTCCGGTCTCCC
DNA 2: TGGTGGCTACGACGGGATT
B2: UGCCGGU (DNA:RNA)
RNA: B1 RNA with G25U, C26G, A28C, C30G, G31U
DNA 1: CAATCTGAATTCCGGTCTCCC
DNA 2: TGGTGGCTACGACGGGATT
B3: CUGCGAG (DNA:RNA)
RNA: B1 RNA with G25C, C26U, C27G, A28C, C30A
DNA 1: CAATCTGAATTCCGGTCTCCC
DNA 2: TGGTGGCTACGACGGGATT
B4: UGUUAGA (DNA:RNA)
RNA: GGGAGACCGGAAUUCAGAUUGUCCUGUUAGAUUAAAUCCCGUCGUAGCCACCA
DNA 1: CAATCTGAATTCCGGTCTCCC
DNA 2: TGGTGGCTACGACGGGATT
B5: GCUUUUG (DNA:RNA)
RNA: B1 RNA with C27U, A28U, G29U, C30U
DNA 1: CAATCTGAATTCCGGTCTCCC
DNA 2: TGGTGGCTACGACGGGATT
B6: AGGAACC (DNA:RNA)
RNA: B1 RNA with G25A, C26G, C27G, G29A, G31C
DNA 1: CAATCTGAATTCCGGTCTCCC
DNA 2: TGGTGGCTACGACGGGATT
B7: GACGUAG (DNA:RNA)
RNA: B1 RNA with C26A, A28G, G29U, C30A
DNA 1: CAATCTGAATTCCGGTCTCCC
DNA 2: TGGTGGCTACGACGGGATT
B8: CGACGGG (DNA:RNA)
RNA: B1 RNA with G25C, C26G, C27A, A28C, C30G
DNA 1: CAATCTGAATTCCGGTCTCCC
DNA 2: TGGTGGCTACGACGGGATT
B9: CUUGACG (DNA:RNA)
RNA: B1 RNA with G25C, C26U, C27U, A28G, G29A
DNA 1: CAATCTGAATTCCGGTCTCCC
DNA 2: TGGTGGCTACGACGGGATT
B10: GUCGGGC (DNA:RNA)
RNA: B1 RNA with C26U, A28G, C30G, G31C
DNA 1: CAATCTGAATTCCGGTCTCCC
DNA 2: TGGTGGCTACGACGGGATT
B11: AGCUCAA (DNA:RNA)
RNA: B4 RNA with U25A, U27C, A29C, G30A
DNA 1: CAATCTGAATTCCGGTCTCCC
DNA 2: TGGTGGCTACGACGGGATT
B12: CAUACAC (DNA:RNA)
RNA: B1 RNA with G25C, C26A, C27U, G29C, C30A, G31C
DNA 1: CAATCTGAATTCCGGTCTCCC
DNA 2: TGGTGGCTACGACGGGATT
B13: CAUAGAU (DNA:RNA)
RNA: B1 RNA with G25C, C26A, C27U, C30A, G31U
DNA 1: CAATCTGAATTCCGGTCTCCC
DNA 2: TGGTGGCTACGACGGGATT
B14: UCAGAUA (DNA:RNA)
RNA: B4 RNA with G26C, U27A, U28G, G30U
DNA 1: CAATCTGAATTCCGGTCTCCC
DNA 2: TGGTGGCTACGACGGGATT
B15: CAGCGGG (DNA:RNA)
RNA: B1 RNA with G25C, C26A, C27G, A28C, C30G
DNA 1: CAATCTGAATTCCGGTCTCCC
DNA 2: TGGTGGCTACGACGGGATT
B16: GAUCUCU (DNA:RNA)
RNA: B1 RNA with C26A, C27U, A28C, G29U, G31U
DNA 1: CAATCTGAATTCCGGTCTCCC
DNA 2: TGGTGGCTACGACGGGATT
B17: UAGGCUC (DNA:RNA)
RNA: B4 RNA with G26A, U27G, U28G, A29C, G30U, A31C
DNA 1: CAATCTGAATTCCGGTCTCCC
DNA 2: TGGTGGCTACGACGGGATT
B18: ACGGGUA (DNA:RNA)
RNA: B1 RNA with G25A, C27G, A28G, C30U, G31A
DNA 1: CAATCTGAATTCCGGTCTCCC
DNA 2: TGGTGGCTACGACGGGATT
B19: GGGGUGA (DNA:RNA)
RNA: B4 RNA with U25G, U27G, U28G, A29U
DNA 1: CAATCTGAATTCCGGTCTCCC
DNA 2: TGGTGGCTACGACGGGATT
B20: GGCGGUC (DNA:RNA)
RNA: B1 RNA with C26G, A28G, C30U, G31C
DNA 1: CAATCTGAATTCCGGTCTCCC
DNA 2: TGGTGGCTACGACGGGATT

Target: T1, RBFOX1 RRM (Homo sapiens, UniProt Q9NWB1 109-208)
T1 sequence: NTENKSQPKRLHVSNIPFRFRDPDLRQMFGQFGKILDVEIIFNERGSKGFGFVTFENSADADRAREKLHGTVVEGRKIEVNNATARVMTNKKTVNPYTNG
Assay: EMSA; HiTS-Eq, 1 nM pool, 10 min; buffer printed only for the single-RNA assays: 10 mM Tris pH 7.5, 150 mM NaCl, 3.4 mM EDTA, 0.001% NP-40, 30 C
Details: tags: His6 N-terminal (pET28a); label: 5' 32P
In short: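 A pool of RNA with 7 randomized nucleotides, 5′-radiolabelled and with DNA-annealed flanks, was equilibrated at 1 nM for 10 min in 50 µL with purified RbFox RRM, wild type or mutant, across increasing protein concentrations. Free RNA was separated by 8% native PAGE, excised, reverse-transcribed, barcoded by PCR and sequenced. Relative association constants were obtained from read-count changes of each RNA species versus the control reaction and normalised to the cognate motif.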

Binder | binding signal
B1 | 0.0147 KA relative to UGCAUGU
B2 | 0.0131 KA relative to UGCAUGU
B3 | 0.0208 KA relative to UGCAUGU
B4 | 0.0238 KA relative to UGCAUGU
B5 | 0.0193 KA relative to UGCAUGU
B6 | 0.0126 KA relative to UGCAUGU
B7 | 0.0129 KA relative to UGCAUGU
B8 | 0.00383 KA relative to UGCAUGU
B9 | 0.00838 KA relative to UGCAUGU
B10 | 0.0126 KA relative to UGCAUGU
B11 | 0.00348 KA relative to UGCAUGU
B12 | 0.000201 KA relative to UGCAUGU
B13 | 0.00513 KA relative to UGCAUGU
B14 | 0.00488 KA relative to UGCAUGU
B15 | 0.00703 KA relative to UGCAUGU
B16 | 0.0194 KA relative to UGCAUGU
B17 | 0.0162 KA relative to UGCAUGU
B18 | 0.0125 KA relative to UGCAUGU
B19 | 0.0239 KA relative to UGCAUGU
B20 | 0.0152 KA relative to UGCAUGU
